Residue numbers refer to the chain shown, from its start. The list shows a part of the results.
T1: RBFOX1 RRM (Homo sapiens, UniProt Q9NWB1 109-208)
T1 sequence: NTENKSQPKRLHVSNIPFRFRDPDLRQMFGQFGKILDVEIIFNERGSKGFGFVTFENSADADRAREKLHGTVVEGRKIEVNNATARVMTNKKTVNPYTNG

B1: CAGGGAC (DNA:RNA)
RNA: GGGAGACCGGAAUUCAGAUUGUCCCAGGGACUUAAAUCCCGUCGUAGCCACCA
DNA 1: CAATCTGAATTCCGGTCTCCC
DNA 2: TGGTGGCTACGACGGGATT
B2: CUGUGUU (DNA:RNA)
RNA: B1 RNA with A26U, G28U, A30U, C31U
DNA 1: CAATCTGAATTCCGGTCTCCC
DNA 2: TGGTGGCTACGACGGGATT
B3: GGUGCUC (DNA:RNA)
RNA: B1 RNA with C25G, A26G, G27U, G29C, A30U
DNA 1: CAATCTGAATTCCGGTCTCCC
DNA 2: TGGTGGCTACGACGGGATT
B4: CUUAUGG (DNA:RNA)
RNA: B1 RNA with A26U, G27U, G28A, G29U, A30G, C31G
DNA 1: CAATCTGAATTCCGGTCTCCC
DNA 2: TGGTGGCTACGACGGGATT
B5: CCUGAGC (DNA:RNA)
RNA: B1 RNA with A26C, G27U, G29A, A30G
DNA 1: CAATCTGAATTCCGGTCTCCC
DNA 2: TGGTGGCTACGACGGGATT
B6: GUACAGA (DNA:RNA)
RNA: GGGAGACCGGAAUUCAGAUUGUCCGUACAGAUUAAAUCCCGUCGUAGCCACCA
DNA 1: CAATCTGAATTCCGGTCTCCC
DNA 2: TGGTGGCTACGACGGGATT
B7: CUUUACG (DNA:RNA)
RNA: B6 RNA with G25C, A27U, C28U, G30C, A31G
DNA 1: CAATCTGAATTCCGGTCTCCC
DNA 2: TGGTGGCTACGACGGGATT
B8: CUGUUGA (DNA:RNA)
RNA: B6 RNA with G25C, A27G, C28U, A29U
DNA 1: CAATCTGAATTCCGGTCTCCC
DNA 2: TGGTGGCTACGACGGGATT
B9: UGUGAAG (DNA:RNA)
RNA: B1 RNA with C25U, A26G, G27U, G29A, C31G
DNA 1: CAATCTGAATTCCGGTCTCCC
DNA 2: TGGTGGCTACGACGGGATT
B10: CGCCAAC (DNA:RNA)
RNA: B1 RNA with A26G, G27C, G28C, G29A
DNA 1: CAATCTGAATTCCGGTCTCCC
DNA 2: TGGTGGCTACGACGGGATT
B11: CGAUGUU (DNA:RNA)
RNA: B1 RNA with A26G, G27A, G28U, A30U, C31U
DNA 1: CAATCTGAATTCCGGTCTCCC
DNA 2: TGGTGGCTACGACGGGATT
B12: GACAGUC (DNA:RNA)
RNA: B1 RNA with C25G, G27C, G28A, A30U
DNA 1: CAATCTGAATTCCGGTCTCCC
DNA 2: TGGTGGCTACGACGGGATT
B13: UCGCUAA (DNA:RNA)
RNA: B1 RNA with C25U, A26C, G28C, G29U, C31A
DNA 1: CAATCTGAATTCCGGTCTCCC
DNA 2: TGGTGGCTACGACGGGATT
B14: UAGGGCC (DNA:RNA)
RNA: B1 RNA with C25U, A30C
DNA 1: CAATCTGAATTCCGGTCTCCC
DNA 2: TGGTGGCTACGACGGGATT
B15: UCCUCAC (DNA:RNA)
RNA: B1 RNA with C25U, A26C, G27C, G28U, G29C
DNA 1: CAATCTGAATTCCGGTCTCCC
DNA 2: TGGTGGCTACGACGGGATT
B16: ACAAUAU (DNA:RNA)
RNA: B1 RNA with C25A, A26C, G27A, G28A, G29U, C31U
DNA 1: CAATCTGAATTCCGGTCTCCC
DNA 2: TGGTGGCTACGACGGGATT
B17: CGCGGCG (DNA:RNA)
RNA: B1 RNA with A26G, G27C, A30C, C31G
DNA 1: CAATCTGAATTCCGGTCTCCC
DNA 2: TGGTGGCTACGACGGGATT
B18: CGCUAGU (DNA:RNA)
RNA: B6 RNA with G25C, U26G, A27C, C28U, A31U
DNA 1: CAATCTGAATTCCGGTCTCCC
DNA 2: TGGTGGCTACGACGGGATT
B19: AGGAAGU (DNA:RNA)
RNA: B6 RNA with G25A, U26G, A27G, C28A, A31U
DNA 1: CAATCTGAATTCCGGTCTCCC
DNA 2: TGGTGGCTACGACGGGATT
B20: CAGGAUA (DNA:RNA)
RNA: B1 RNA with G29A, A30U, C31A
DNA 1: CAATCTGAATTCCGGTCTCCC
DNA 2: TGGTGGCTACGACGGGATT
B21: AGUAACA (DNA:RNA)
RNA: B6 RNA with G25A, U26G, A27U, C28A, G30C
DNA 1: CAATCTGAATTCCGGTCTCCC
DNA 2: TGGTGGCTACGACGGGATT
B22: GUCGCAA (DNA:RNA)
RNA: B6 RNA with A27C, C28G, A29C, G30A
DNA 1: CAATCTGAATTCCGGTCTCCC
DNA 2: TGGTGGCTACGACGGGATT
B23: AUAGGGC (DNA:RNA)
RNA: B1 RNA with C25A, A26U, G27A, A30G
DNA 1: CAATCTGAATTCCGGTCTCCC
DNA 2: TGGTGGCTACGACGGGATT
B24: GCCAGCG (DNA:RNA)
RNA: B1 RNA with C25G, A26C, G27C, G28A, A30C, C31G
DNA 1: CAATCTGAATTCCGGTCTCCC
DNA 2: TGGTGGCTACGACGGGATT
B25: UGCCGGU (DNA:RNA)
RNA: B6 RNA with G25U, U26G, A27C, A29G, A31U
DNA 1: CAATCTGAATTCCGGTCTCCC
DNA 2: TGGTGGCTACGACGGGATT
B26: CUGCGAG (DNA:RNA)
RNA: B1 RNA with A26U, G28C, C31G
DNA 1: CAATCTGAATTCCGGTCTCCC
DNA 2: TGGTGGCTACGACGGGATT
B27: UGUUAGA (DNA:RNA)
RNA: B6 RNA with G25U, U26G, A27U, C28U
DNA 1: CAATCTGAATTCCGGTCTCCC
DNA 2: TGGTGGCTACGACGGGATT
B28: GCUUUUG (DNA:RNA)
RNA: B6 RNA with U26C, A27U, C28U, A29U, G30U, A31G
DNA 1: CAATCTGAATTCCGGTCTCCC
DNA 2: TGGTGGCTACGACGGGATT
B29: AGGAACC (DNA:RNA)
RNA: B1 RNA with C25A, A26G, G28A, G29A, A30C
DNA 1: CAATCTGAATTCCGGTCTCCC
DNA 2: TGGTGGCTACGACGGGATT
B30: GACGUAG (DNA:RNA)
RNA: B1 RNA with C25G, G27C, G29U, C31G
DNA 1: CAATCTGAATTCCGGTCTCCC
DNA 2: TGGTGGCTACGACGGGATT
B31: CGACGGG (DNA:RNA)
RNA: B6 RNA with G25C, U26G, A29G, A31G
DNA 1: CAATCTGAATTCCGGTCTCCC
DNA 2: TGGTGGCTACGACGGGATT

target: T1, RBFOX1 RRM; assay: EMSA; HiTS-Eq, 1 nM pool, 10 min; buffer printed only for the single-RNA assays: 10 mM Tris pH 7.5, 150 mM NaCl, 3.4 mM EDTA, 0.001% NP-40, 30 C; details: tags: His6 N-terminal (pET28a); label: 5' 32P
How it was run: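 Relative association constants, normalised to the cognate motif, were derived by comparing read counts of each RNA species with those of the control reaction. The RNA sequenced was the free fraction, separated by 8% native PAGE after a 10 min equilibration in 50 µL of 1 nM 5′-radiolabelled RNA (7 randomized nucleotides) with increasing concentrations of purified wild-type or mutant RbFox RRM.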

Binder	binding signal
B1	0.0073 KA relative to UGCAUGU
B2	0.0207 KA relative to UGCAUGU
B3	0.0279 KA relative to UGCAUGU
B4	0.00785 KA relative to UGCAUGU
B5	0.00946 KA relative to UGCAUGU
B6	0.0123 KA relative to UGCAUGU
B7	0.00682 KA relative to UGCAUGU
B8	0.0269 KA relative to UGCAUGU
B9	0.0226 KA relative to UGCAUGU
B10	0.00635 KA relative to UGCAUGU
B11	0.0118 KA relative to UGCAUGU
B12	0.012 KA relative to UGCAUGU
B13	0.00696 KA relative to UGCAUGU
B14	0.00834 KA relative to UGCAUGU
B15	0.00186 KA relative to UGCAUGU
B16	0.000362 KA relative to UGCAUGU

Binder	binding signal
B17	0.02 KA relative to UGCAUGU
B18	0.0168 KA relative to UGCAUGU
B19	0.0147 KA relative to UGCAUGU
B20	0.0109 KA relative to UGCAUGU
B21	0.00267 KA relative to UGCAUGU
B22	0.0102 KA relative to UGCAUGU
B23	0.00593 KA relative to UGCAUGU
B24	0.0147 KA relative to UGCAUGU
B25	0.0131 KA relative to UGCAUGU
B26	0.0208 KA relative to UGCAUGU
B27	0.0238 KA relative to UGCAUGU
B28	0.0193 KA relative to UGCAUGU
B29	0.0126 KA relative to UGCAUGU
B30	0.0129 KA relative to UGCAUGU
B31	0.00383 KA relative to UGCAUGU
